Over roughly 33,000 sequences, “E-score (-0.5 to 0.5)” has its median near -0.035; the highest 2% begin near 0.35. This is one part of the list.
Target: T1, Pdr3 (UniProt P33200)
T1 sequence: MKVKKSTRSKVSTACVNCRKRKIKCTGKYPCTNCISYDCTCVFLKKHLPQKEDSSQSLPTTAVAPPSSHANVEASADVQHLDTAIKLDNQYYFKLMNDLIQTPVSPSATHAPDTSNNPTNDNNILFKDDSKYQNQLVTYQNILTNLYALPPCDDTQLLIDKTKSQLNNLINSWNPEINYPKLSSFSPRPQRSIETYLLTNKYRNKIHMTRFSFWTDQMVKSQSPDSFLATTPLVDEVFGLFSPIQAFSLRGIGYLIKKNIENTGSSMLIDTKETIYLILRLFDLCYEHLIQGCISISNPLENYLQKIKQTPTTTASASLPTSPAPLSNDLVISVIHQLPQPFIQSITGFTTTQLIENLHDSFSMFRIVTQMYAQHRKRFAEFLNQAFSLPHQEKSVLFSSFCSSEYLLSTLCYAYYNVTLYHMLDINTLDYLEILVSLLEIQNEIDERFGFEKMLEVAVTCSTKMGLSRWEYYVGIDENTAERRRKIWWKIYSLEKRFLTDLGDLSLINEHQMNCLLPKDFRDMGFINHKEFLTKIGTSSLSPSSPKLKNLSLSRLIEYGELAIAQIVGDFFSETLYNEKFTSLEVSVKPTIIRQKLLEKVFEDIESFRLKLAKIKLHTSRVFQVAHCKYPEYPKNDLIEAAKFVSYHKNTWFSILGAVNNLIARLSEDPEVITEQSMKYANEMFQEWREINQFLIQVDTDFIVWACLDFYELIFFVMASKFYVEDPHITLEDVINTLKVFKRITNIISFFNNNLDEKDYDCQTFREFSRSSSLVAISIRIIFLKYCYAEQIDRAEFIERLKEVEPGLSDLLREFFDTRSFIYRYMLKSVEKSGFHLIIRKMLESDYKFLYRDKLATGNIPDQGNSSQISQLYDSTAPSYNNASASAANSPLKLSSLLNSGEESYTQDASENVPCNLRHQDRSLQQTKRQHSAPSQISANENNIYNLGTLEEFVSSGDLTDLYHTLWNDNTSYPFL
Assay: PBM E-score (8-mer binding enrichment) (E-score (-0.5 to 0.5)); higher = stronger / more preferred TF binding; most listed sequences are background and not binding sites
Details: protein concentration: 200 nM; construct: GST-full length
Summary of the method: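 E-scores (a modified Wilcoxon-Mann-Whitney statistic) were assigned by the Universal PBM Analysis Suite to every ungapped eight-base word pooled with its reverse complement. The input came from universal all-10-mer Agilent arrays made double-stranded by primer extension and probed with GST-tagged yeast transcription factors at about 100-200 nM. Fluorescent anti-GST detected bound protein, and masliner normalised the scans.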

Sequence	PBM E-score
CTCAGCGC	0.0917
GGGGGGTA	-0.0904
AACAATTG	-0.189
AACGGCAT	0.285
ACAACAGT	-0.0384
CAGATGAC	-0.223
CTACTAGC	0.0647
ACGACCCC	-0.102
GGCCCCCA	-0.21
CCCTCAGC	-0.0804
AAATCACG	0.205
CCCGCGGC	0.488
GGCCTCAA	0.0353
AGCCCCGG	0.303
CATACATG	-0.163
CTCCAAGC	-0.227
GGGCGCGA	0.238
AGAGGAAG	-0.0644
CAGCCTCC	-0.065
ATGTTACG	-0.283
ACTCGCAA	-0.0907
TCCGCAGA	0.258
ATCCGCGC	0.309
AATCTCGG	0.272
GATCAACA	-0.178

Sequence	PBM E-score
CGTGAGAC	-0.0337
AAACCTGG	-0.0779
CACGAGCA	-0.112
AAAAGCTA	-0.0489
ATAAAGTA	-0.0718
CACCCTCA	-0.13
AGTACCCA	-0.106
CTGCTCCC	-0.0396
TCCTTAAA	-0.366
GGGTTTTA	0.0747
ACGCCCGG	0.311
CGGGGCTA	-0.0766
AAGTCTTG	-0.227
CTTTACTC	-0.0439
CCATTTAA	-0.0335
ATCCTTGG	-0.0819
AGAAAAAA	-0.103
CACTCAGC	0.0738
GCACCGAA	-0.0086
AATTCGAG	-0.223
CAGGTCGA	0.0254
ACGAAACC	0.124
ACTTCTCG	0.00113
AACTCGTC	-0.0963
GGATTCGA	0.0995

Sequence	PBM E-score
AAGTTGAG	0.00223
AAGACTGT	-0.263
GGGACCGA	0.238
GGTATTAC	0.225
CGTACTGC	-0.206
AATACCCA	0.041
AAACAAGG	-0.141
GTAAGACA	-0.16
TATTTAAA	0.15
AATTGCAC	0.0157
AGTTCCAA	-0.0003
AGGGGCAA	-0.0487
AAGTGATG	-0.086
AGTGTTGA	0.0967
CATTGGGG	-0.191
CAGGGTTC	-0.0232
ATCCATTC	0.119
AAAGCGAA	0.0456
AGTCTAGG	-0.294
ATAGAAGC	-0.0746
CGTAGAAC	-0.135
AACTCACC	0.0831
ACAATCTC	-0.00834
GAAAAATC	0.0586
GACGTTTA	-0.243

Sequence	PBM E-score
CTGTCTAC	-0.218
ACTGGCCG	0.0679
AGGATGTA	-0.0686
GCAACGGA	0.413
GTTTGAGA	-0.226
CAGTACCG	0.185
TAAGCAAA	-0.179
CTTCTCCA	-0.225
CATATCGG	0.055
AGTTCCCA	0.16
AGGGTCCG	0.263
ACAGGTGA	-0.0799
CAGGACGC	-0.158
TGTGTCAA	-0.238
CAAATATA	0.0437
CGCGATGC	-0.0841
GTCCTGGA	-0.268
AAAATCGG	0.106
ACCTGTAT	-0.287
CCGCGTTC	0.288
GACGATGA	-0.121
CAGGGGGC	-0.162
AGCGGTAG	-0.224
GCCCGCGA	0.156
GAGGGCAA	0.0725

Sequence	PBM E-score
TACTGGCA	-0.188
CACCTAGA	-0.233
TACTCGGA	0.336
AACCTACA	-0.0121
AGGAACAC	0.168
ATGCGACG	0.0842
AGTCATTC	-0.0557
CTTACGAA	-0.0993
CTATGCAG	-0.111
AAAATTGT	0.0897
AAGAGGAT	-0.286
ACAAGATC	-0.0126
CCTGCTAA	-0.31
GCGCACCA	0.107
AGCCGTAA	-0.0912
TCTAAACA	-0.271
GTATGTCA	-0.0199
GAGCAGCC	-0.0446
AGGTAGTA	0.0166
CAGCCCGA	0.0851
ACGCAGCG	-0.0522
ACTCTTCC	0.102
AACACTGG	-0.175
CGATGGAA	0.0341
ACAGCCAG	-0.0973

Sequence	PBM E-score
ATTCATCA	0.0396
GAAGACCA	-0.0161
ATAAGAGC	0.111
GAGTAGAA	-0.197
ACGCGGCC	0.0489
CGGAAGGC	0.369
GATTTCGA	-0.031
CAGAACAG	-0.0607
AGAAAGAC	-0.147
GAAATGCC	0.0864
AGGCCGTA	0.102
CGCATGCA	0.136
AGCGGTGA	-0.164
ACTAAGAG	-0.103
AGTAATAA	-0.177
GTACTGCA	-0.0762
ACTGCTCT	0.0618
GTGTCAGA	-0.00535
GACCAATC	-0.0364
GACGTGCC	-0.0459
TCCCTGCA	-0.0479
AGGGGGTC	-0.385
ATGGCCTA	-0.085
ATTAACGG	0.211
GTTGAGAA	-0.169

Sequence	PBM E-score
CTACATCC	0.0693
CATAAGTC	-0.0907
CAGTACAC	-0.0683
AATAGTGC	0.13
GGACGTCC	0.0601
CCCCAACC	0.0118
CCCGGGAG	0.397
CACAGGCG	-0.121
AAGCCAAT	-0.0401
TAACAAAA	-0.0729
TCGTTGCA	-0.19
GGCCACAC	0.0364
ACATTGTA	-0.0269
AATGCTTG	-0.214
TTGCTAAA	-0.209
GTCCGCCA	0.138
GCAGATGC	-0.125
GCTCCCAA	-0.232
AAACGTGA	-0.18
AGCAGTTG	0.0628
GCCGCAGA	0.0902
CATTTCAG	-0.0756

Source: the supplement of paper PMC3334620
